Measured values reported in paper PMC12136788.
Substitutions are numbered along the chain they refer to. Some of the results follow.

T1: UNK ZnF1-3 (human, UniProt Q9C0B0 31-174)
T1 sequence: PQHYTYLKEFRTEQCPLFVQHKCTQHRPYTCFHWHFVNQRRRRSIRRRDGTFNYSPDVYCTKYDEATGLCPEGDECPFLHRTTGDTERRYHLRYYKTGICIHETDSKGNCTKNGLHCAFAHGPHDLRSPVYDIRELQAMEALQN

B1: 145239222_145239342_111_3pUTR_ENSMUSG00000074182_ENSMUST00000098534|mouse|control|control (ssRNA)
RNA: GGGAGUUCUACAGUCCGACGAUCGCAGAUUCCAUGAGCUCACGAGCCUAGGCCGAAGCUGCCACUCCGUUCUUCACGGUGGCACCACCAAGCCAAUAAGAGAGAUUACCAAACGAACCGCCGACAGCGCCACACGUGCAGCAACAACAGAGGAUUGAGCAUCA
B2: chr7:141441981:141441982:+_ENSG00000106028_ENST00000265304|hu_mus|hu_hu_hu_mus_False|78_88 (ssRNA)
RNA: GGGAGUUCUACAGUCCGACGAUCCUCAUGUCUUACAAACUGACGAAGUACCUGUAAUACAGGUCUUCGAAACAUGGCUUCUGUUUUUCUUACAACCUAAUCUUUAGGCUUUUCCUAAAGGAAAGAAAGAAAAGAGAAAAAUGACAACAGAGGAUUGAGCAUCA
B3: chr16:94651144:94651145:+_ENSMUSG00000040785_ENSMUST00000117648|mus_hu|mus_mus_mus_hu_True|68_68 (ssRNA)
RNA: GGGAGUUCUACAGUCCGACGAUCAUUUUCUUGAAUCAAGUGGCGAAUAACAUAGUCCACUGCUUCAUGGACAAAAUUUCUGCUAGAAAAACAGGUUGUAUAGUCUUCUGUGCUCAAAACUUUCCAAGAAAGCAAUUCUUUGAGCAACAGAGGAUUGAGCAUCA
B4: chr5:92956547:92956548:-_ENSG00000113391_ENST00000395965|hu_hu|FALSE|FALSE (ssRNA)
RNA: GGGAGUUCUACAGUCCGACGAUCCCAGUGAACCCAUAUUGCUUUGACAGUUGCACUCAUCUAGAAAUAAUGCAAAACGCUAUUUAGAUGUAUAUAUCACGACCCUGGGCUCUGGGAAGAAAACAAUCUAAUGAGGGGCUGGGACAACAGAGGAUUGAGCAUCA
B5: chr5:128440902:128440903:+_ENSG00000066583_ENST00000173527|hu_mus|hu_hu_hu_mus_True|78_98 (ssRNA)
RNA: GGGAGUUCUACAGUCCGACGAUCUUGAACGGUGCUGCCAAGACCUUUGGGGUAUUGUUCUGUUACAAUAACUGGAAUCCCUAAGAUCCGAGCUCCUUGCAACAGUCUCUGUCCCACACUAAUGAUGUCCCCAAAGUAUUUGAUCAACAGAGGAUUGAGCAUCA
B6: chr2:48026839:48026840:+_ENSG00000116062_ENST00000540021|hu_hu|hu_hu_hu_mus_False|18_18 (ssRNA)
RNA: GGGAGUUCUACAGUCCGACGAUCAUAGUGAGCCACUAGCGUCCUAAAUCUGGAACAGUGGCGGUCAUCCGAAAACUGGCCGAUGAAAAACUUGCCCAGUGAAGUGUCCACAAAGCACACACCAUAUACACGAGUGUGACCAGACAACAGAGGAUUGAGCAUCA
B7: chr8:48265483:48265484:-_ENSMUSG00000038143_ENSMUST00000079195|mus_hu|FALSE|FALSE (ssRNA)
RNA: GGGAGUUCUACAGUCCGACGAUCAUAUCUUAAAAAGUAACACAAUCCAAAAUGGAUAUUUCACACAACACUACAUAAACAACAUGAACACAGUAUCACCAUAGGGAGGGACUUUCAAAUAUAGACUUACAAAAAUCCCUGUCCCAACAGAGGAUUGAGCAUCA
B8: chr1:225611761:225611762:-_ENSG00000143815_ENST00000272163|hu_mus|hu_hu_hu_mus_True|1_58 (ssRNA)
RNA: GGGAGUUCUACAGUCCGACGAUCCCAGGCCAUCGGCCUCUGACCACUUCACCCUCAACAAACUUCCUACUUGGCAUUUUCUAUAAUUAGUCUGGCCGCGCUCCGGCGGGAACUCCAGCCACUCCAGGACAGUCACCCGCACAGCAACAGAGGAUUGAGCAUCA
B9: chr11:10830335:10830336:-_ENSG00000110321_ENST00000339995|hu_mus|FALSE|FALSE (ssRNA)
RNA: GGGAGUUCUACAGUCCGACGAUCGCAGCUGCCUCCUCUGGAUCCGGUCGUCGGGGACGGGGAAGGGAGGGGGAAGGGGAACGGAAAACAAAAAAGGGGGAGGGAAGGGGGAGGAAGGAGACGCGGCCGGCUUGAAAGUCUCAGCAACAGAGGAUUGAGCAUCA
B10: chr1:220276048:220276049:+_ENSG00000067704_ENST00000302637|hu_hu|FALSE|FALSE (ssRNA)
RNA: GGGAGUUCUACAGUCCGACGAUCGCAAACAGCUUCAUUGGCUGGAAUCGUCCAAGGUUGUGUGGUCCAGACCAAAAUACUAACAGGAGAUGAACCAUCUAUAAGAGAUGCCAAUUUUGGAGAAGGCUUUAAGAGAGGAAAUUUCAACAGAGGAUUGAGCAUCA
B11: chr2:48026839:48026840:+_ENSG00000116062_ENST00000540021|hu_hu|hu_hu_hu_mus_False|38_38 (ssRNA)
RNA: B6 RNA with G105A, C117A, U126C
B12: 74336472_74336592_942_3pUTR_ENSG00000077514_ENST00000263681|human|control|control (ssRNA)
RNA: GGGAGUUCUACAGUCCGACGAUCAACAGGCUCUGCUUUUUUGCUGGAUUUUUUCAGGCCUGCAGGAGUUGCCAGCUUUGGUUCCGUGACAGACACUGUAGGCUGCUCCACUAUUUUUUCUUCUUUCACUGCUUGUUCUGAGUCCAACAGAGGAUUGAGCAUCA
B13: chr4:25749455:25749456:-_ENSG00000091490_ENST00000264868|hu_hu|motif|central (ssRNA)
RNA: GGGAGUUCUACAGUCCGACGAUCGGAAGCACUAGGACCCUAGAAAAAUUCAAGGAGAAAAAUGUAAACCAAUUUACAAAGCGGUUGCCCUCCCUGCAUUUCCAGGCACAAACAAUUUAUUUCAAGGUGCCUUAUAACUGCUAGCAACAGAGGAUUGAGCAUCA
B14: chr14:96997824:96997825:+_ENSG00000090060_ENST00000216277|hu_mus|motif|central (ssRNA)
RNA: GGGAGUUCUACAGUCCGACGAUCGUUUUUAAGCAGACUGUCAUCUCGUAGGUCCAAAUCUUCUGGAAUAGUCUGCAGUGCGGAUCUUGCAAACAAAAUAUCAAUCUCUAUUCCAUCAAAACAGAGUUUGAUAACUGGUACAAACAACAGAGGAUUGAGCAUCA
B15: chr14:66974463:66974464:+_ENSMUSG00000022044_ENSMUST00000074523|mus_hu|mus_mus_mus_hu_False|68_68 (ssRNA)
RNA: GGGAGUUCUACAGUCCGACGAUCUUGUAGGACGACUUAUUCAGGGGAUCGGCCAGGAAGCAGGAGCAGAACAGAGACACCAGCGGGAGCUCCUUCAUCUUCUCUUUGUAGGCAGCAAGGGUCAUGUUUCUGGGAUCUGGUGGCCAACAGAGGAUUGAGCAUCA
B16: 23912569_23912689_5974_CDS_ENSG00000151835_ENST00000382298|human|control|control (ssRNA)
RNA: GGGAGUUCUACAGUCCGACGAUCACACUCUACUGUUUUCUGUGACAACUCAUCUGAUGGCUUUUUUGAUUGGCCAGACUUAGCCAUUUCAAAGAGAGCAGCUGGGUCAUCAUCUGGACCUCUAAAAAGUGGCGACUGUAAAUCCAACAGAGGAUUGAGCAUCA
B17: chr14:53325254:53325255:-_ENSG00000073712_ENST00000341590|hu_mus|motif|central (ssRNA)
RNA: GGGAGUUCUACAGUCCGACGAUCGACCACCUUGCAGUCUACUUCGGUACAGAUGAAGGACAACCGGACCUCAUCUGCAAACUCGGCAGUGACCAUCUUGAUCUCCCAGUUGACAUUCCACUGCUUCAUGUUGCUGAACCGCCACAACAGAGGAUUGAGCAUCA
B18: 120201867_120205416_288_CDS_ENSMUSG00000026374_ENSMUST00000027623|mouse|control|control (ssRNA)
RNA: GGGAGUUCUACAGUCCGACGAUCCACGAACCGCCAAUGCUCAUGAAACCUGUAAUACUGCUCAGCGGGGAACUUGGUCUUCAGGGACGUGAGAUGUGUUUUUACUGUACUGAAAUGUUCUCUCGCUUUCAAGCACCUCUUUGGCAACAGAGGAUUGAGCAUCA
B19: 1054960_1056412_1422_CDS_ENSG00000107937_ENST00000545048|human|control|control (ssRNA)
RNA: GGGAGUUCUACAGUCCGACGAUCGAUUUCUGGUAUCUUAUCAUGUUUUUCAGACAAAUUCAUUAAAUCCCAGUACUUCUGAAGAUCCAAAAUAUAAUCAUCUCCCAUUUCCAGCUCAAGAUCUCGUUCCCUCUUCUUCCUGGACAACAGAGGAUUGAGCAUCA
B20: chr1:76254992:76254993:+_ENSG00000137955_ENST00000319942|hu_hu|FALSE|FALSE (ssRNA)
RNA: GGGAGUUCUACAGUCCGACGAUCCAGCGUAAGAAUCUGGACAGCACUAAGAGUGUAUAAAAGAUGAGGAUCAUGUCCGAUACUAGCACUUAUUCCACCACAUUCAUGUUGGCAAGACUUAAUAAAUGCCAGAAUCUCUUCUCUCAACAGAGGAUUGAGCAUCA
B21: chr17:66526506:66526507:+_ENSG00000108946_ENST00000358598|hu_hu|motif|central (ssRNA)
RNA: GGGAGUUCUACAGUCCGACGAUCGUACUGCUGGAUGUUUCGUUUGAGGAUGUCUGAGCAUGGGCCAAGAACACGUUCAAAUCGGGGUCGGUCCAGCUUAACGCACUUCAAGGGGCCACGAGCAACAACUGUGGCAGCACGAGGCAACAGAGGAUUGAGCAUCA
B22: chr1:186326634:186326635:-_ENSG00000047410_ENST00000367478|hu_hu|motif|central (ssRNA)
RNA: GGGAGUUCUACAGUCCGACGAUCGGCCACUAAGAGACGUUGAUUUUGUUGUUGAAGCUCUUCAAUAUUUCUGUAAGAUACGGGAUGCUGUGAUAUUACCUCAGAUGAACUACUUAUAUCAGCAGAGCUUACUUCCUCAUCACGCAACAGAGGAUUGAGCAUCA

biological target: T1, UNK ZnF1-3; test: nsRBNS (natural sequence RNA bind-n-seq); RBNS binding buffer (assumed for nsRBNS): 25 mM Tris pH 7.5, 150 mM KCl, 3 mM MgCl2, 0.01% Triton X-100, 500 ug/ml BSA, 20 U/ml SUPERase-In, 4 C; UNK is unkempt and MSI1 is Musashi-1; names of the RNAs are library labels; protein concentration not given here; high values mean tight binding

Row | Binder | binding signal
1 | B1 | 1.23 enrichment R
2 | B2 | 0.573 enrichment R
3 | B3 | 0.519 enrichment R
4 | B4 | 1.46 enrichment R
5 | B5 | 0.539 enrichment R
6 | B6 | 1.18 enrichment R
7 | B7 | 1.22 enrichment R
8 | B8 | 1.17 enrichment R
9 | B9 | 2.21 enrichment R
10 | B10 | 1.83 enrichment R
11 | B11 | 1.07 enrichment R
12 | B12 | 0.352 enrichment R
13 | B13 | 1.24 enrichment R
14 | B14 | 0.636 enrichment R
15 | B15 | 2.09 enrichment R
16 | B16 | 0.77 enrichment R
17 | B17 | 0.769 enrichment R
18 | B18 | 0.94 enrichment R
19 | B19 | 0.652 enrichment R
20 | B20 | 1.13 enrichment R
21 | B21 | 2.05 enrichment R
22 | B22 | 1.09 enrichment R
